Biological target: BRD4 (BDII_E352-M457) (Homo sapiens, UniProt O60885)
Experiment: TR-FRET bromodomain binding assay, BRD4 BDII

Structure (SMILES)	Ki [nM]
Cc1cc(F)cc(C)c1Oc1ccc(C(C)(C)O)cc1-c1cn(C)c(=O)cc1O[C@H]1C[C@@H](C(C)(C)O)C1 [Example 94, 5-[2-(4-fluoro-2,6-dimethylphenoxy)-5-(2-hydroxypropan-2-yl)phenyl]-4-{[cis-3-(2-hydroxypropan-2-yl)cyclobutyl]oxy}-1-methylpyridin-2(1H)-one]	134
Cc1cc(F)cc(C)c1Oc1ccc(C(C)(C)O)cc1-c1cn(C)c(=O)cc1O[C@H]1C[C@@H](C(=O)O)C1 [Example 97, cis-3-({5-[2-(4-fluoro-2,6-dimethylphenoxy)-5-(2-hydroxypropan-2-yl)phenyl]-1-methyl-2-oxo-1,2-dihydropyridin-4-yl}oxy)cyclobutane-1-carboxylic acid]	58.3
Cc1cc(F)cc(C)c1Oc1ccc(C(C)(C)O)cc1-c1cn(C)c(=O)cc1O[C@H]1CC[C@H](N2C(=O)C3COCCN3C2=O)CC1 (relative stereo) [Example 126, 2-[trans-4-({5-[2-(4-fluoro-2,6-dimethylphenoxy)-5-(2-hydroxypropan-2-yl)phenyl]-1-methyl-2-oxo-1,2-dihydropyridin-4-yl}oxy)cyclohexyl]tetrahydro-1H-imidazo[5,1-c][1,4]oxazine-1,3(2H)-dione]	10.2
CNC(=O)N[C@H]1CC[C@H](Oc2cc(=O)n(C)cc2-c2cc(C(C)(C)O)ccc2Oc2c(C)cc(F)cc2C)CC1 [Example 128, N-[trans-4-({5-[2-(4-fluoro-2,6-dimethylphenoxy)-5-(2-hydroxypropan-2-yl)phenyl]-1-methyl-2-oxo-1,2-dihydropyridin-4-yl}oxy)cyclohexyl]-N′-methylurea]	6.01
Cc1cc(F)cc(C)c1Oc1ccc(C(C)(C)O)cc1-c1cn(C)c(=O)cc1O[C@H]1CC[C@@H](NNC(=O)OC(C)(C)C)CC1 [Example 107, tert-butyl 2-[cis-4-({5-[2-(4-fluoro-2,6-dimethylphenoxy)-5-(2-hydroxypropan-2-yl)phenyl]-1-methyl-2-oxo-1,2-dihydropyridin-4-yl}oxy)cyclohexyl]hydrazine-1-carboxylate]	552
CC(=O)N[C@H]1CC[C@H](Oc2cc(=O)n(C)cc2-c2cc(C(C)(C)O)ccc2Oc2c(C)cc(F)cc2C)CC1 [Example 3, N-[trans-4-({5-[2-(4-fluoro-2,6-dimethylphenoxy)-5-(2-hydroxypropan-2-yl)phenyl]-1-methyl-2-oxo-1,2-dihydropyridin-4-yl}oxy)cyclohexyl]acetamide]	2.11
CC(=O)NN[C@H]1CC[C@H](Oc2cc(=O)n(C)cc2-c2cc(C(C)(C)O)ccc2Oc2c(C)cc(F)cc2C)CC1 [Example 105, N′-[trans-4-({5-[2-(4-fluoro-2,6-dimethylphenoxy)-5-(2-hydroxypropan-2-yl)phenyl]-1-methyl-2-oxo-1,2-dihydropyridin-4-yl}oxy)cyclohexyl]acetohydrazide]	68.3
Cc1cc(F)cc(C)c1Oc1ccc(C(C)(C)O)cc1-c1cn(C)c(=O)cc1O[C@H]1CC[C@H](N2C(=O)N(C)C(C)(C)C2=O)CC1 [Example 142, 3-[trans-4-({5-[2-(4-fluoro-2,6-dimethylphenoxy)-5-(2-hydroxypropan-2-yl)phenyl]-1-methyl-2-oxo-1,2-dihydropyridin-4-yl}oxy)cyclohexyl]-1,5,5-trimethylimidazolidine-2,4-dione]	9.67
CC(=O)NC[C@H]1C[C@H](Oc2cc(=O)n(C)cc2-c2cc(C(C)(C)O)ccc2Oc2c(C)cc(F)cc2C)C1 [Example 6, N-{[trans-3-({5-[2-(4-fluoro-2,6-dimethylphenoxy)-5-(2-hydroxypropan-2-yl)phenyl]-1-methyl-2-oxo-1,2-dihydropyridin-4-yl}oxy)cyclobutyl]methyl}acetamide]	7.62
Cc1cc(F)cc(C)c1Oc1ncc(C(C)(C)O)cc1-c1cn(C)c(=O)cc1O[C@H]1CC[C@H](N2CCCC2=O)CC1 [Example 60, 2′-(4-fluoro-2,6-dimethylphenoxy)-5′-(2-hydroxypropan-2-yl)-1-methyl-4-{[trans-4-(2-oxopyrrolidin-1-yl)cyclohexyl]oxy}[3,3′-bipyridin]-6(1H)-one]	7.74
Cc1cc(F)cc(C)c1Oc1ccc(C(C)(C)O)cc1-c1cn(C)c(=O)cc1O[C@H]1CC[C@H](N2C(=O)N[C@@H](C)C2=O)CC1 [Example 124, (5S)-3-[trans-4-({5-[2-(4-fluoro-2,6-dimethylphenoxy)-5-(2-hydroxypropan-2-yl)phenyl]-1-methyl-2-oxo-1,2-dihydropyridin-4-yl}oxy)cyclohexyl]-5-methylimidazolidine-2,4-dione]	2.61
Cc1cc(F)cc(C)c1Oc1ccc(C(C)(C)O)cc1-c1cn(C)c(=O)cc1O[C@H]1CC[C@H](NC(=O)c2ccccc2C(=O)O)CC1 [Example 45, 2-{[trans-4-({5-[2-(4-fluoro-2,6-dimethylphenoxy)-5-(2-hydroxypropan-2-yl)phenyl]-1-methyl-2-oxo-1,2-dihydropyridin-4-yl}oxy)cyclohexyl]carbamoyl}benzoic acid]	11
Cc1cc(F)cc(C)c1Oc1ccc(C(C)(C)O)cc1-c1cn(C)c(=O)cc1O[C@H]1CC[C@H](NC(=O)C2CC2)CC1 [Example 50, N-[trans-4-({5-[2-(4-fluoro-2,6-dimethylphenoxy)-5-(2-hydroxypropan-2-yl)phenyl]-1-methyl-2-oxo-1,2-dihydropyridin-4-yl}oxy)cyclohexyl]cyclopropanecarboxamide]	3.01
Cc1cc(F)cc(C)c1Oc1ccc(C(C)(C)O)cc1-c1cn(C)c(=O)cc1O[C@H]1CC[C@H](NC(=O)C23CC(C2)C3)CC1 (relative stereo) [Example 86, N-[trans-4-({5-[2-(4-fluoro-2,6-dimethylphenoxy)-5-(2-hydroxypropan-2-yl)phenyl]-1-methyl-2-oxo-1,2-dihydropyridin-4-yl}oxy)cyclohexyl]bicyclo[1.1.1]pentane-1-carboxamide]	1.93
Cc1cc(F)cc(C)c1Oc1ccc(C(C)(C)O)cc1-c1cn(C)c(=O)cc1O[C@H]1CC[C@H](N(C)C(=O)C2(C)CC2)CC1 [Example 58, N-[trans-4-({5-[2-(4-fluoro-2,6-dimethylphenoxy)-5-(2-hydroxypropan-2-yl)phenyl]-1-methyl-2-oxo-1,2-dihydropyridin-4-yl}oxy)cyclohexyl]-N,1-dimethylcyclopropane-1-carboxamide]	2.89
CCNC(=O)[C@H]1CC[C@@H](Oc2cc(=O)n(C)cc2-c2cc(C(C)(C)O)ccc2Oc2c(C)cc(F)cc2C)CC1 [Example 76, cis-N-ethyl-4-({5-[2-(4-fluoro-2,6-dimethylphenoxy)-5-(2-hydroxypropan-2-yl)phenyl]-1-methyl-2-oxo-1,2-dihydropyridin-4-yl}oxy)cyclohexane-1-carboxamide]	148
Cc1cc(F)cc(C)c1Oc1ccc(C(C)(C)O)cc1-c1cn(C)c(=O)cc1O[C@H]1CC[C@H](NC(=O)C23CCC(CO)(CC2)CC3)CC1 (relative stereo) [Example 110, N-[trans-4-({5-[2-(4-fluoro-2,6-dimethylphenoxy)-5-(2-hydroxypropan-2-yl)phenyl]-1-methyl-2-oxo-1,2-dihydropyridin-4-yl}oxy)cyclohexyl]-4-(hydroxymethyl)bicyclo[2.2.2]octane-1-carboxamide]	4.43
Cc1cc(F)cc(C)c1Oc1ccc(C(C)(C)O)cc1-c1cn(C)c(=O)cc1O[C@H]1CC[C@H](CNC(=O)OC(C)(C)C)CC1 [Example 15, tert-butyl [trans-4-({5-[2-(4-fluoro-2,6-dimethylphenoxy)-5-(2-hydroxypropan-2-yl)phenyl]-1-methyl-2-oxo-1,2-dihydropyridin-4-yl}oxy)cyclohexyl]methylcarbamate]	6.33
COCCN(C(=O)C1(C)CC1)[C@H]1CC[C@H](Oc2cc(=O)n(C)cc2-c2cc(C(C)(C)O)ccc2Oc2c(C)cc(F)cc2C)CC1 [Example 64, N-[trans-4-({5-[2-(4-fluoro-2,6-dimethylphenoxy)-5-(2-hydroxypropan-2-yl)phenyl]-1-methyl-2-oxo-1,2-dihydropyridin-4-yl}oxy)cyclohexyl]-N-(2-methoxyethyl)-1-methylcyclopropane-1-carboxamide]	6.72
Cc1cc(F)cc(C)c1Oc1ccc(C(C)(C)O)cc1-c1cn(C)c(=O)cc1O[C@H]1CC[C@H](N2CCCC2=O)CC1 [Example 24, 5-[2-(4-fluoro-2,6-dimethylphenoxy)-5-(2-hydroxypropan-2-yl)phenyl]-1-methyl-4-{[trans-4-(2-oxopyrrolidin-1-yl)cyclohexyl]oxy}pyridin-2(1H)-one]	1.37
CC(=O)N(C)[C@H]1CC[C@H](Oc2cc(=O)n(C)cc2-c2cc(C(C)(C)O)ccc2Oc2c(C)cc(F)cc2C)CC1 [Example 16, N-[trans-4-({5-[2-(4-fluoro-2,6-dimethylphenoxy)-5-(2-hydroxypropan-2-yl)phenyl]-1-methyl-2-oxo-1,2-dihydropyridin-4-yl}oxy)cyclohexyl]-N-methylacetamide]	2.43
Cc1cc(F)cc(C)c1Oc1ccc(C(C)(C)O)cc1-c1cn(C)c(=O)cc1O[C@H]1CC[C@@H](C#N)CC1 [Example 68, cis-4-({5-[2-(4-fluoro-2,6-dimethylphenoxy)-5-(2-hydroxypropan-2-yl)phenyl]-1-methyl-2-oxo-1,2-dihydropyridin-4-yl}oxy)cyclohexane-1-carbonitrile]	34.7
Cc1cccc(C)c1Oc1ccc(C(C)(C)O)cc1-c1cn(C)c(=O)cc1NC1CCN(S(C)(=O)=O)C1 (stereo not shown) [Example 12, 5-[2-(2,6-dimethylphenoxy)-5-(2-hydroxypropan-2-yl)phenyl]-4-{[1-(methanesulfonyl)pyrrolidin-3-yl]amino}-1-methylpyridin-2(1H)-one]	35
Cc1cc(F)cc(C)c1Oc1ccc(C(C)(C)O)cc1-c1cn(C)c(=O)cc1O[C@H]1CC[C@H](NC(=O)C23CC(N)(C2)C3)CC1 (relative stereo) [Example 93, 3-amino-N-[trans-4-({5-[2-(4-fluoro-2,6-dimethylphenoxy)-5-(2-hydroxypropan-2-yl)phenyl]-1-methyl-2-oxo-1,2-dihydropyridin-4-yl}oxy)cyclohexyl]bicyclo[1.1.1]pentane-1-carboxamide]	1.94
Cc1cc(F)cc(C)c1Oc1ccc(C(C)(C)O)cc1-c1cn(C)c(=O)cc1NC1CCN(S(C)(=O)=O)CC1 [Example 9, 5-[2-(4-fluoro-2,6-dimethylphenoxy)-5-(2-hydroxypropan-2-yl)phenyl]-4-{[1-(methanesulfonyl)piperidin-4-yl]amino}-1-methylpyridin-2(1H)-one]	12.5
